Results from PMC12136788.
The list shows a part of the results.

B1: chr5:86670034:86670035:+_ENSG00000145715_ENST00000456692|hu_mus|FALSE|FALSE (ssRNA)
RNA: GGGAGUUCUACAGUCCGACGAUCCUCUGACCAUACUGGGUUUUGCCCCUCCCUUGCAUGAGUUUUUGCUACUUGGACGCUAUUCAAGUAGAUGUUACAAUAUGGAUUAGUAAAGUGUUUUACUGGUAGUUUAUGGGCUUCUUCCAACAGAGGAUUGAGCAUCA
B2: chr1:23381596:23381597:+_ENSG00000004487_ENST00000356634|hu_hu|FALSE|FALSE (ssRNA)
RNA: GGGAGUUCUACAGUCCGACGAUCAGUUGGUAGGGGUUUUAUCCUCUUAUAGAUGCCGAAGUUGAUAAGACCAUGACGCUCUAAAUAACUGUGAACUCGGUGGACAAGCACAGUAUCACUGUUAUAAGGUGCUUCUAAUUGUUGCAACAGAGGAUUGAGCAUCA
B3: chr16:18799448:18799449:-_ENSG00000134419_ENST00000563390|perfect_dup|FALSE|FALSE (ssRNA)
RNA: GGGAGUUCUACAGUCCGACGAUCCCUGCCUGUGAGGUUCACAACAAUUUUCCCAGCUCUGUGGUCAUCAAUGAUUUCAAAUUCGCCAAUGUAACCAUGCUUCAUCAUCACAGUGAGAAACCGGACGAUGACUUUGGAGCACGGCAACAGAGGAUUGAGCAUCA
B4: 31526874_31526994_474_CDS_ENSG00000113360_ENST00000513349|human|control|control (ssRNA)
RNA: GGGAGUUCUACAGUCCGACGAUCAGGUUCAUAUUGAUAUUGCACAGGAGGCUGCUGAGGGUGAAGCAGCCUCAGAUUUUGGGGCCUAAAGGAUGGUGCUGAGGGUCUGGCUCCAUGUCCUCCUCGUCCUCGGGGACACCCUCGCAACAGAGGAUUGAGCAUCA
B5: chr17:49043493:49043494:-_ENSG00000008294_ENST00000510283|hu_hu|motif|central (ssRNA)
RNA: GGGAGUUCUACAGUCCGACGAUCUUUGAUUUGUUCAUAAUAUACUGAAGUUACCUAUAACACUGGUGCAGUAACACAGCGGGUUCCUCUGUAUUGUUAUGGUAGAACGGAUUUUGUAAUAUAAAGUUAACAGGAAAAAAUGCUCAACAGAGGAUUGAGCAUCA
B6: chr3:148802587:148802588:-_ENSG00000071794_ENST00000310053|hu_mus|hu_hu_hu_mus_False|18_108 (ssRNA)
RNA: GGGAGUUCUACAGUCCGACGAUCUCCAACCACAUGACCUCUCAUAGUUCCAAAUAAAACCAAAUCUUGCUCUUCAUCACUCGUUAGGAAGUCAUCUGGAGGAAUAAUGUCUUGGAAUUCAAAACGUGGCAAGAAAGUUGAGUACAACAGAGGAUUGAGCAUCA
B7: 10437954_10438074_480_CDS_ENSMUSG00000027534_ENSMUST00000029047|mouse|control|control (ssRNA)
RNA: GGGAGUUCUACAGUCCGACGAUCAAAUUUAGUCCUAAUGAGAGGACUACCACACAUUGAUGAUGCACUGUCCAUCUGAUCCUGGACAUUCGUCUGCUUAAGACUGCCCACAGCUGAGUCCUCUAACUGGCCUUUGGAAGAGGUCAACAGAGGAUUGAGCAUCA
B8: chr16:46708560:46708561:-_ENSG00000069329_ENST00000568784|perfect_dup|motif|central (ssRNA)
RNA: GGGAGUUCUACAGUCCGACGAUCCAAAAAGUUUAAUAUCCGCUGGGAUUCCAGGUCCAUCUUCACGGUGAGCAAAUAAAGCGGAUCGGUCAAUUAAAGCAAUGAUUAUGUUCUUCACAUUUACAUUCUGGUGUAACUCAGCACCAACAGAGGAUUGAGCAUCA
B9: 25101351_25104063_597_CDS_ENSMUSG00000001833_ENSMUST00000165594|mouse|control|control (ssRNA)
RNA: GGGAGUUCUACAGUCCGACGAUCCUUAACCAGUUUAUUCUCUUCUUCAUCAUCUGUUUCUGGAAAUUCAUAUAUUUUAAUUUUAUGUUCUUGAAUUUCUUUCAUUAUCUGCUUUUUAAACUGUUGGCAUUCCUCUGGUGUAAGCAACAGAGGAUUGAGCAUCA
B10: chr3:19126325:19126326:-_ENSMUSG00000069094_ENSMUST00000091314|mus_hu|FALSE|FALSE (ssRNA)
RNA: GGGAGUUCUACAGUCCGACGAUCGCUUACUAUACAUAAAACAAUUUAAAACAAAUUACAAAAGUGGAAUGUUUGAAGUUUAAAAUUAGUCCUUAUAGUUUGUCCUAGAAAACAUCUGUUCACAUCAAAAGGCCCGUCAAAGGGCAACAGAGGAUUGAGCAUCA
B11: 33171585_33171705_3458_CDS_ENSMUSG00000054280_ENSMUST00000120129|mouse|control|control (ssRNA)
RNA: GGGAGUUCUACAGUCCGACGAUCUUCCCGAGAAGACAGACAAGAGUGCACCAUCUUGACAGAGUCUUGGCACCCAGGAGACACUGAGUCUUUUAAGGAUAAUCCAAAGGUUUUCCUCUUGCCAAACUCAGAAUUUGCUUCAAGCAACAGAGGAUUGAGCAUCA
B12: chr11:2905015:2905016:-_ENSG00000129757_ENST00000380725|hu_mus|motif|central (ssRNA)
RNA: GGGAGUUCUACAGUCCGACGAUCAGUUUUCAGAUUUCCACAAAACCGUGGGCUGCUCUACGCAACCAUCUCCGGUUCCUGCGGCAUGAACGAAAGGUCCCAGCCGAAGCCCAGAGUUCUUCCAUCGUCCGCUGCCCAGAUGCCCAACAGAGGAUUGAGCAUCA
B13: 202626020_202626140_1009_CDS_ENSG00000003393_ENST00000264276|human|control|control (ssRNA)
RNA: GGGAGUUCUACAGUCCGACGAUCGCAUCGUUCUGGGACUGGCUUCAGAUCCUGGGAAGGGAGGCAUUGUACAAGGGCUAAGCUGUGGAAAGCACCACAGGCAACUUGAAGCACCACUCGCCCAGCAAGAUGUUCUACCUUUUGCAACAGAGGAUUGAGCAUCA
B14: chr6:36759976:36759977:-_ENSMUSG00000029838_ENSMUST00000101534|mus_mus|FALSE|FALSE (ssRNA)
RNA: GGGAGUUCUACAGUCCGACGAUCAGCUGGCUGCCUUUGUUGCAAAGUGCGGGCGAGGUUUCUGCAGACUCCAGGUAUCGCUGGCUGAUGCUCCUGCCUGGGCGGCUGCGCUCUGCUCUCCCCCCUUCUGGAUGGAUGACUCAGCAACAGAGGAUUGAGCAUCA
B15: chr2:47387792:47387793:-_ENSG00000143933_ENST00000272298|hu_hu|hu_hu_hu_mus_True|1_18 (ssRNA)
RNA: GGGAGUUCUACAGUCCGACGAUCUAAGGACAAUGACAGUAAGAUAAGGGAAGAAAACAUGGAGGAAUGAAGUCCUAAUUACUAUACAUGCAUAUUUUUUGACAGUAGGGGGGGGGACUUUUACAGAGAUAAGUUACACAAAGACAACAGAGGAUUGAGCAUCA
B16: chr5:21408736:21408737:-_ENSMUSG00000042453_ENSMUST00000161356|mus_hu|mus_mus_mus_hu_False|78_78 (ssRNA)
RNA: GGGAGUUCUACAGUCCGACGAUCGUUGACAGAGUUGUAGAUGGUGGCUUCAUGGAACUGGAACGGGGAGCAGCCAAUGCUGUUAGAAGAGGAAGGAAGGCACUGGGUCUGUACGAGCUGCCAGGAAUCCGAUCUUGCAUCCUUCAACAGAGGAUUGAGCAUCA
B17: chr1:163117127:163117128:-_ENSG00000143248_ENST00000313961|hu_mus|hu_hu_hu_mus_False|78_108 (ssRNA)
RNA: GGGAGUUCUACAGUCCGACGAUCUGCGGGUUAUUAUGUAACUCAACUCACAGGGCAUGAUUUCAUAGCCUGACCAGAUGACUACUUGAUUAGCUCCUUAUAAAAUUCAGAGCGCACAAAGCGGGGCAGAGAAUCCUUCUCCAUCAACAGAGGAUUGAGCAUCA
B18: chr16:92112057:92112058:+_ENSMUSG00000039680_ENSMUST00000047429|mus_hu|FALSE|FALSE (ssRNA)
RNA: GGGAGUUCUACAGUCCGACGAUCCCCUUCACAUUCUUUUAGUUCCUGGGUCAGAGGGUGUUUGACAAUAUUCCCUCUAAUCACAUCUAUAUCUCGAGACAAGUGCUCCACCAUGCUUUCAACAGCUGCGGUGGGUGCAUAAAACAACAGAGGAUUGAGCAUCA
B19: chr1:39494447:39494448:+_ENSG00000168653_ENST00000372967|hu_mus|hu_hu_hu_mus_False|1_8 (ssRNA)
RNA: GGGAGUUCUACAGUCCGACGAUCGCACCGAGCGGCGUUCUUAUAGGGCUGUUCUGCGCUUAGGAACAUAAAGUGCCGGUCCAGGCUGAUGCCCAGCUUUUUCUGUAUGUCAAGGAAAGGCAUGGCUGAUGCUCGUGCCCUUGACAACAGAGGAUUGAGCAUCA
B20: 600660_613778_369_CDS_ENSG00000141252_ENST00000437048|human|control|control (ssRNA)
RNA: GGGAGUUCUACAGUCCGACGAUCCCGUCCAUCCUGCCCCACGUUCGUCUGACCUCUUACAACAGUUCGAAUAUUGUCAUCCAGUCUCCUUAUUUUCAGCCUAAUUUUGUUCACGACUUCGUCUAUGUUCGCCAGAGAUUGCUCCAACAGAGGAUUGAGCAUCA
B21: chr9:59476459:59476460:+_ENSMUSG00000025237_ENSMUST00000026267|mus_hu|FALSE|FALSE (ssRNA)
RNA: GGGAGUUCUACAGUCCGACGAUCUUUCAGCAUGGAGUCCUGUAUGAUAGGGAAACUGGGAGACUUGGGGAUGGGUGAAAAGAUGCUGAGGCCAGCUCGGAACUUCUUGAUGGUACCACUUGCCUUGAACCAACUGUGCCUCUUCAACAGAGGAUUGAGCAUCA
B22: chr17:35975015:35975016:-_ENSMUSG00000001525_ENSMUST00000001566|mus_mus|FALSE|FALSE (ssRNA)
RNA: GGGAGUUCUACAGUCCGACGAUCGCCACACUGUCCGGCCUGGAUGUGCACGAUUUCCCUCAUGGCUACGGUUUACUGAAAUAAUUGUUUUUGAUGGUUCCAAUGUAGGUACCGAACAAGAAAGAAAAUUAAGGUUUUUGGGGUCAACAGAGGAUUGAGCAUCA

Each binder was assayed against T1, UNK ZnF1-3 (human, UniProt Q9C0B0 31-174) (assay: nsRBNS (natural sequence RNA bind-n-seq); RBNS binding buffer (assumed for nsRBNS): 25 mM Tris pH 7.5, 150 mM KCl, 3 mM MgCl2, 0.01% Triton X-100, 500 ug/ml BSA, 20 U/ml SUPERase-In, 4 C; UNK is unkempt and MSI1 is Musashi-1; names of the RNAs are library labels; protein concentration not given here; high values mean tight binding).
T1 sequence: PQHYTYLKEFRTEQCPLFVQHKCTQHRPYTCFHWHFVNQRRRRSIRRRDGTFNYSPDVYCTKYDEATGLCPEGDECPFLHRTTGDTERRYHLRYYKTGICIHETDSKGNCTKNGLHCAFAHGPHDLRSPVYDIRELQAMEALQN

Binder | binding signal [enrichment R]
B1 | 0.449
B2 | 0.733
B3 | 0.793
B4 | 0.816
B5 | 1.91
B6 | 1.3
B7 | 0.684
B8 | 1.34
B9 | 0.344
B10 | 2.24
B11 | 1.16
B12 | 0.659
B13 | 1.79
B14 | 1.13
B15 | 2.28
B16 | 1.64
B17 | 0.829
B18 | 0.546
B19 | 0.719
B20 | 0.758
B21 | 1.19
B22 | 1.46
